In all, about 48,000 compounds went through this assay and about 550 (1.1%) were called active. Roughly 4% stayed inconclusive and do not appear here. No stated cut-off is given here; in the data, active means potency below about 15 µM; inconclusive means mostly about 16 µM to 33 µM; inactive means weaker than that. Some of the results follow.
Each compound was assayed against Lysosomal acid glucosylceramidase (Homo sapiens) (UniProt P04062) (assay: Glucocerebrosidase). Conditions: purified enzyme, resorufin glucoside fluorescence (screen aimed at inhibitors), 20 min.
Summary of the method: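 Normal human glucocerebrosidase (0.2 nM final) was assayed with resorufin β-D-glucopyranoside (30 uM final) in 50mM citric acid/KH2PO4, 10mM sodium taurocholate, 0.01% tween-20, pH 5.9. Compounds were titrated; fluorescence (Ex 548, Em 600) read after 20 min at RT.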
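Further: the screen sought inhibitors.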
Potency means the concentration at half of the fitted maximal effect.

Chain of UniProt P04062 (P04062 whole entry, looked up): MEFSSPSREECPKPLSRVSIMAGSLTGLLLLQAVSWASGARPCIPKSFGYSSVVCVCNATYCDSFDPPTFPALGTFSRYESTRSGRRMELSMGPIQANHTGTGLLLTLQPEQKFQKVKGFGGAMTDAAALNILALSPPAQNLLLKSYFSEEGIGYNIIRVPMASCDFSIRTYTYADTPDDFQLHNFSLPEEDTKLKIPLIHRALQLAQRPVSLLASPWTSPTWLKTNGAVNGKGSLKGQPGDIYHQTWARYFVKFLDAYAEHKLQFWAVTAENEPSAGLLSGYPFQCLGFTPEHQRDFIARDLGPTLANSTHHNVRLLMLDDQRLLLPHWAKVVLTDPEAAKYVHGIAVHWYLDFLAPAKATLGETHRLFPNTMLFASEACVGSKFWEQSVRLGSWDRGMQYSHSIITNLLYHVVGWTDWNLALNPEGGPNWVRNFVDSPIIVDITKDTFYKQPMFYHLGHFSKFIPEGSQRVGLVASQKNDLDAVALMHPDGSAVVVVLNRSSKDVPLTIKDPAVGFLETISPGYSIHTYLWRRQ

Potency, inactive:
O=C(CSc1nnc(-c2ccc(S(=O)(=O)N3CCCC3)cc2)n1CC1CCCO1)NC1CC1 (centres undefined) > 76.9 µM, c1ccc(-c2cc(-c3nn4c(-c5ccco5)nnc4s3)c3ccccc3n2)cc1 > 76.9 µM, COc1ccccc1-c1nnc(SCc2nc3ccccc3[nH]2)n1C > 76.9 µM, CC1=[N+]([O-])C(C)(C)C(C)N(O)C1=O (centres undefined) > 76.9 µM, Cn1ccnc1SCC(=O)N(C1CCCCC1)C1CCCCC1 > 76.9 µM, Cc1ccccc1NS(=O)(=O)c1cc(C(=O)N2CCCC2)ccc1C > 76.9 µM, CCOC(=O)c1cnn(-c2cc(C)c3cc(C)cc(C)c3n2)c1N > 76.9 µM, Cc1cn(-c2ccc(Br)cc2)[nH]c1=O > 76.9 µM, CC1CCCCC1N1CCN(C(=O)c2cccc(F)c2)CC1 (centres undefined) > 76.9 µM, CC(C)(C)C1CCc2nc(NC(=O)Cc3cn4ccsc4n3)sc2C1 (centres undefined) > 15.4 µM, CCn1c(SCCC#N)nnc1-c1ccncc1 > 76.9 µM, O=C1CSC(c2ccccn2)N1c1ccccc1 (centres undefined) > 76.9 µM, COc1cccc(C(=O)Nc2c3c(nn2-c2cccc(C)c2C)CS(=O)C3)c1OC (centres undefined) > 76.9 µM, CC(C)Oc1ccc(C2C(C(=O)c3ccco3)=C(O)C(=O)N2CCCN(C)C)cc1 (centres undefined) > 76.9 µM, Cc1ccc(C)c(NC(=O)CSc2nnc(-c3ccccc3)n2N)c1 > 76.9 µM, Cc1ccc(S(=O)(=O)c2cc3c(=O)n4ccccc4nc3n(CC3CCCO3)c2=N)cc1 (centres undefined) > 76.9 µM, COCCCN1C(=O)c2[nH]nc(-c3ccccc3O)c2C1c1cccc(Cl)c1 (centres undefined) > 76.9 µM, O=C(O)CCC(=O)N(Cc1cccs1)Cc1cccs1 > 76.9 µM, O=C(O)c1ccccc1-c1ccccc1C(=O)NCc1ccco1 > 76.9 µM, Nc1ccc2c(c1)COc1ccccc1O2 > 76.9 µM, c1ccc2c(c1)nc(-c1ccncc1)n1nnnc21 > 76.9 µM, O=C(CSc1nnc(-c2cccs2)o1)N1CCc2ccccc21 > 76.9 µM, O=C(Nc1ccccc1N1CCOCC1)c1ccc2ccccc2n1 > 76.9 µM, COc1cc(C2C(C(=O)c3ccco3)=C(O)C(=O)N2CCc2ccccc2)ccc1O (centres undefined) > 76.9 µM, Cc1cccnc1NC(=O)c1c(O)c2cccc3c2n(c1=O)CCC3 > 76.9 µM, COc1ccccc1NC(=O)CN1CCN(c2ccc(Cl)cc2)CC1 > 76.9 µM, NC(=O)c1oc2ccc(Cl)cc2c1N > 76.9 µM, CC(=O)Nc1ccc(S(=O)(=O)Nc2ccc(N3CCOCC3)cc2)cc1 > 76.9 µM, Clc1ccc(OCc2nn3c(-c4ccncc4)nnc3s2)cc1 > 76.9 µM, Cc1ccc(N(C(=O)C2CCC(=O)N2)C2(C(=O)NC3CCCCC3)CCCCC2)cc1 (centres undefined) > 76.9 µM, Cc1cc(=O)n2c3c(sc2n1)C(=O)N(Cc1ccccc1)C3=O > 76.9 µM, COCCNC(=O)C(c1ccco1)N(Cc1ccc(OC)cc1)C(=O)Cn1nnc2ccccc21 (centres undefined) > 76.9 µM, O=S(=O)(N1CCCCC1)n1nnc2ccccc21 > 76.9 µM, CCCCc1cc(=O)oc2cc(C)cc(OCC(=O)O)c12 > 76.9 µM, CCOC(=O)N1CCN(C(=O)c2ccc3nc4cc(Cl)ccc4c(=O)n3c2)CC1 > 76.9 µM, CC1CCC(C(=O)NC(C(=O)N2CCN(c3ccccn3)CC2)C(C)C)CC1 (centres undefined) > 76.9 µM, CCOC(=O)CSc1nc2c(c(=O)n1-c1ccc(OCC)cc1)SCC2 > 76.9 µM, COc1ccc(C(=O)NCc2c(CC(C)C)oc(C)c2C(=O)O)cc1 > 76.9 µM, O=C(c1noc2c1CCCC2)N1CCN(C(c2ccccc2)c2ccccc2)CC1 > 76.9 µM, O=C1CCCc2nn(-c3ccccc3)c(-c3ccncc3)c21 > 76.9 µM, CC(C)n1cnc2cc(NCc3nc4ccccc4n3C)ccc21 > 76.9 µM, Cc1ccc2nc(NC(=O)CSc3nc4c(c(=O)n3C)SC(C)C4)sc2c1 (centres undefined) > 76.9 µM, Cc1ccc(S(=O)(=O)Nn2c(C)ccc2C)cc1, CCNC(=O)CCc1nc(-c2ccc(C(C)(C)C)cc2)no1 > 76.9 µM, O=C(c1ccccc1)N(CCN1CCOCC1)C1(C(=O)Nc2ccccc2)CCCCC1 > 76.9 µM, CC(C)CCNC(=O)NC(=O)COc1ncnc2sccc12 > 76.9 µM, O=C(CC1CCCCC1)NCc1ccccn1 > 76.9 µM, CN1CCN(c2ccc(Cl)cc2NC(=O)C2COc3ccccc3O2)CC1 (centres undefined), Cc1cc(C(C)(C)C)cc(S(=O)(=O)NCCO)c1C > 76.9 µM, CCOCCCNS(=O)(=O)c1ccc2c(c1)OCCO2 > 76.9 µM, NS(=O)(=O)c1ccc(CCNC(=O)CCCC2=NS(=O)(=O)c3ccccc3N2)cc1 > 76.9 µM, COc1ccc2[nH]c(=O)c(CN(C(=O)C3CCCO3)c3cccc(C)c3)cc2c1 (centres undefined) > 76.9 µM, CCOc1cc2[nH]c(=S)n(CCCN3CCN(C)CC3)c(=O)c2cc1OCC > 76.9 µM, CCOC(=O)/C=C1\NC(C)(C)Cc2cc(OC)c(O)cc21 > 76.9 µM, CCOC(=O)C1CCN(C(=O)COc2cccc(C)c2)CC1 > 76.9 µM, OC1(c2cccc(C(F)(F)F)c2)CCN(c2ccc(-c3ccccc3)nn2)CC1 > 76.9 µM, CCC(C)NC(=O)N[C@@H](CCSC)C(=O)O (some centres undefined) > 76.9 µM, CCN(CC)Cc1cc2ccccc2c2c1COC2 > 76.9 µM, CCOc1ccc(N2C(=O)CC(SCCN)C2=O)cc1 (centres undefined) > 76.9 µM

From PubChem BioAssay AID360 (National Center for Advancing Translational Sciences (NCATS), 2006)
